B1: LINE1-mini (parent)
chain: GGCAGAGCUCAACACAGCGUGGCAAAGUGGCUGUGGCUAGACUGCC

Read counts are not given, so values of variants with three or more changes are uncertain.

The variants in this series derive from B1. Nature of the series: self-cleavage, relative activity (ratio to wild type); higher = more cleavage; in vitro, sequencing; the parent is a self-cleaving ribozyme.
On to GGCAGAGCUCAACACAGCUUGGCAAAGUGGCUGUGGUUAGGCUGCU [G19U C37U A41G C46U], for which the self-cleavage amounted to 0.04. Next, GGCAGAGCUCAACACAGCUUGGCAAAGUGGCUUUGGUUAGACUGCG [G19U G33U C37U C46G]: 0.06. Next, GGCAGAGCUCAACACAGCGAGGCACAGUGGCUGUGGCUCGACUGCC [U20A A25C A39C]: 0.01. For GGCAGAGCUCAACACAGCGCGGGAAACUGAAUGUGGAUAAUCUGCG [U20C C23G G27C G30A C31A C37A G40A A41U C46G] the value was 0.03; for GGCAGAGCUCAACACAGCUUGGCAAAGUGGCUUUGGCUAGACUUCC [G19U G33U G44U], 0.04. With GGCAGAGCUCAACACAGCGAGGAAAAUUGGCAGUGGCCAGACUGGC [U20A C23A G27U U32A U38C C45G], the self-cleavage was 0.03. Next, GGCAGAGCUCAACACAGCUUGGUAAAGUGGCUGUGGCUAGUCUGCC [G19U C23U A41U]: 2.43. For GGCAGAGCUCAACACAGCGAGGCAAGGGGGCUGUGGCUAGACUUCC [U20A A26G U28G G44U] the value was 0.01; for GGCAGAGCUCAACACAGCGAGGCGAAGUGGCUCUGGCUAGACUGCC [U20A A24G G33C], 0.05. For GGCAGAGCUCAACACAGCGAGGCAAAGUGGCUGUGGGUAGACUGCU [U20A C37G C46U] the value was 0.02.

In the case of GGCAGAGCUCAACACAGCGAGCCAAAGGGGCUGUGGCUAGACUGCC [U20A G22C U28G], the self-cleavage was found to be 0.15. Next, GGCAGAGCUCAACACAGCGCGACAUAGUGGCUGUGGCUAGACUGCC [U20C G22A A25U]: 0.54; GGCAGAGCUCAACACAGCGAGGCAAAGUGGCUGGCGCUAGACCGCC [U20A U34G G35C U43C]: 0.02. Next, GGCAGAGCUCAACACAGCGAGGCAAAGUGGCUGUGAAUAGACUGCC [U20A G36A C37A]: 0.08. Next, GGCAGAGCUCAACACAGCGAGGCAAAGUGGCUGUGAUUAGACUGCC [U20A G36A C37U]: 0.12.

As to GGCAGAGCUCAACACAGCGCGACAUAGUGGCGGUGGCUAGACUGCC [U20C G22A A25U U32G], the self-cleavage was found to be 0.19. Next, GGCAGAGCUCAACACAGCUUGUCAAAGUGUCUGUGGCUAGACAGCC [G19U G22U G30U U43A]: 0.31.

Take GGCAGAGCUCAACACAGCGAGGCAAAUUGACUGCGGCCAGUCUGUC [U20A G27U G30A U34C U38C A41U C45U]: the self-cleavage was determined as 0.05. Next, GGCAGAGCUCAACACAGCGCGGCUAAGUGGCUGUGGUUAGACUGCC [U20C A24U C37U]: 0.04; GGCAGAGCUCAACACAGCGAAGCAACGUGGCUGUGGCGAGACUGAC [U20A G21A A26C U38G C45A]: 0.01; GGCAGAGCUCAACACAGCUUGGCAAAGUGUCUGUGGCUAGACAGCC [G19U G30U U43A]: 0.22. Next, GGCAGAGCUCAACACAGCUUUGCAAAGCGGCUGUGGCUAGACUGCC [G19U G21U U28C]: 0.24; GGCAGAGCUCAACACAGCUUGGCAAAGUGGCUGUGGCUAGACGGAC [G19U U43G C45A]: 0.03.

GGCAGAGCUCAACACAGCUUCGCAAAGUGGCUGUGGCUUGACUGCC [G19U G21C A39U]: the self-cleavage came to 0.17. With GGCAGAGCUCAACACAGCGCGGCAACGUGUCUGUGGCUAGACUGCC [U20C A26C G30U], the self-cleavage stood at 0.1.

Regarding GGCAGAGCUCAACACAGCUUGGCAAAGUGGCUGUCGCUAGACUGGC [G19U G35C C45G], the self-cleavage turned out to be 0.12. For GGCAGAGCUCAACACAGCGAGGCAAAGUGGCUGCGUCUAGACUGCC [U20A U34C G36U] the value was 0.04; for GGCAGAGCUCAACACAGCGAGGCAAAGUUGCUGUGGAUAGACGACC [U20A G29U C37A U43G G44A], 0. GGCAGAGCUCAACACAGCUUGGCAAAGUGGCUGGGGCUGGACUUCC [G19U U34G A39G G44U]: the self-cleavage came to 0.03.

Turning to GGCAGAGCUCAACACAGCGAGCCAAAGAGGCGGGGGCUAGACUGCC [U20A G22C U28A U32G U34G], the self-cleavage is 0.03. Next, GGCAGAGCUCAACACAGCUUGGCAAAGUGGCUGUGCGUUGACUGCC [G19U G36C C37G A39U]: 0.02; GGCAGAGCUCAACACAGCUGGGCAUAGUGGCUGUGGCUAGACUGCC [G19U U20G A25U]: 0.6; GGCAGAGCUCAACACAGCGCGGGAAAGCGGCUGUCGCUAAACUGCC [U20C C23G U28C G35C G40A]: 0.01. Next, GGCAGAGCUCAACACAGCUUGGCAAAGUGGGUGUGGCUAGACUGCG [G19U C31G C46G]: 0.02; GGCAGAGCUCAACACAGCUUGGCAAAGUGGCAGUGGCGAGACUGCC [G19U U32A U38G]: 0. Next, GGCAGAGCUCAACACAGCUUGGCAAAGUGGCAAUGGCUAGACUCAC [G19U U32A G33A G44C C45A]: 0.02; GGCAGAGCUCAACACAGCGCGGCAAUGUGGCUGAGGAUAGACUGCC [U20C A26U U34A C37A]: 0.02; GGCAGAGCUCAACACAGCGAGGCAAAGUAACUGUGGCUAGACCGUC [U20A G29A G30A U43C C45U]: 0.03. Turning to GGCAGAGCUCAACACAGCGAGGCAGAGUGGCGGUGGCUAGACUGCC [U20A A25G U32G], the self-cleavage came to 0.11. Next, GGCAGAGCUCAACACAGCUUGGGAAACUGGCUGUGGUUAGACUGCC [G19U C23G G27C C37U]: 0; GGCAGAGCUCAACACAGCUUGCCAAAGUGACUGUGGCUAGACUGCC [G19U G22C G30A]: 2.61; GGCAGAGCUCAACACAGCUUGGCAAAGUGGCUGUGGUUAUACUGCC [G19U C37U G40U]: 0.04.

For GGCAGAGCUCAACACAGCGAGGCAAAAUGGCUGUGGCUAUACUGCC [U20A G27A G40U], the self-cleavage stood at 0.03.

With GGCAGAGCUCAACACAGCGCGGCAAAGUGGCUGUGGCUAGCCCGCC [U20C A41C U43C], the self-cleavage was found to be 0.03. For GGCAGAGCUCAACACAGCUGAGCAAAGUGGCUGUUGCUUCACUGCC [G19U U20G G21A G35U A39U G40C], the self-cleavage came to 0.02. For GGCAGAGCUCAACACAGCUUGGCAAAGUGGCUGUGUCUAAACUGCC [G19U G36U G40A] the value was 0.06.

As for GGCAGAGCUCAACACAGCUUUGCAAAGUUGAUGUGCUUAGACUGCC [G19U G21U G29U C31A G36C C37U], the self-cleavage came out at 0.01.

As to GGCAGAGCUCAACACAGCUUGGCAAAGUGGCUGAAGCUAGAGUGCC [G19U U34A G35A C42G], the self-cleavage was determined as 0.06. Next, GGCAGAGCUCAACACAGCGAGGCAGAGUGGCUGUGGCUGGUCUGCC [U20A A25G A39G A41U]: 0.05. Next, GGCAGAGCUCAACACAGCUUCGCAAAGUGGCGGCGGCUAGACUGCC [G19U G21C U32G U34C]: 0.13; GGCAGAGCUCAACACAGCGAGGCGAAUUAGCUGUGGCUAGACUGCC [U20A A24G G27U G29A]: 1.41. For GGCAGAGCUCAACACAGCUUGGCAAAGUGGCUGGGACUAAACUGCC [G19U U34G G36A G40A], the self-cleavage came out at 0.03. Next, GGCAGAGCUCAACACAGCGAGGCCAAGUGGCUGUAGCUAGACUGCC [U20A A24C G35A]: 0.07; GGCAGAGCUCAACACAGCUUAGCAAAGUGGCUGUGGCUUGUCUGCC [G19U G21A A39U A41U]: 0.73; GGCAGAGCUCAACACAGCGCGGCUGAGUGGCUGUGGCUAGACUGCC [U20C A24U A25G]: 1.26. Next, GGCAGAGCUCAACACAGCGAGCCAAAGUGGCUGUGGCAAGACUGCC [U20A G22C U38A]: 0.77.

(Values after the RNAGym collection of RNA variant scans (doi:10.7554/elife.90254).)
